# Several values for one entry are separate records, joined by “and”; a condition that tells them apart may be missing. Equal values may be shown once. Out of some 230,000 compounds screened, about 3,600 (1.6%) were called active. The shares of active, inactive and inconclusive entries below differ from those in the screen. Calls follow the shape of the dose curve; as a rule, active = well fitted inhibition curve with a large enough effect (not every such curve was filed as active); inconclusive = small, poorly fitted or top-dose-only effect, or another doubt; inactive = no such curve, though single readings can be large or run the other way. A potency beside an inconclusive call is a rough fit, not a confirmed value.
# Target: Lysine-specific demethylase 4E (Homo sapiens) (UniProt B2RXH2)
# Sequence of UniProt B2RXH2 (B2RXH2 whole entry, looked up, the tested form may be a part): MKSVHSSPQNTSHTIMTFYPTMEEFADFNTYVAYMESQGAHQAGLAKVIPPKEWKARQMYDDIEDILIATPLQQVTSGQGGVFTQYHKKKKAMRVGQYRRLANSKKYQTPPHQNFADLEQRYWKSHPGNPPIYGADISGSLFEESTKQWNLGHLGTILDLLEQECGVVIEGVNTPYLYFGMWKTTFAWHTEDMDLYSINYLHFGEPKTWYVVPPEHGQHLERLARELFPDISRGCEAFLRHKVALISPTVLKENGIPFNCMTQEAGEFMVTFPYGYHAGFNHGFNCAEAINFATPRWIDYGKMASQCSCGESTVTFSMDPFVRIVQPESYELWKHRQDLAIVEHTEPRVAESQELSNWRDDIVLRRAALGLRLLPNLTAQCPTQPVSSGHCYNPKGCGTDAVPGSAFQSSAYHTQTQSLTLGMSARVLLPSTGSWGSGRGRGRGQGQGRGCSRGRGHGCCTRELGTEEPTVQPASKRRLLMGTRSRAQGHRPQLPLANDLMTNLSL
# Assay: qHTS Assay for Inhibitors of Human Jumonji Domain Containing 2E (JMJD2E)
# Settings: JMJD2E catalytic domain, FDH-coupled NADH fluorescence (FDH is formaldehyde dehydrogenase); series mostly up to 57.1 µM
# Also: nearly all actives have a fitted effect of over 50% in size.
# Potency is read from the fitted curve at half-maximal effect; tags tell the direction and shape of the fitted curve.
row,Compound,Potency
1,O=P1(O)Oc2c(c(-c3ccccc3)cc3ccc4ccccc4c23)-c2c(-c3ccccc3)cc3ccc4ccccc4c3c2O1,"inconclusive: 31.6 µM [inhibitor, single point]"
2,BrC(=C\c1ccccc1)/C=N/N1CCN(c2ccccn2)CC1,"inconclusive: 39.8 µM [inhibitor, single point]"
3,Cc1ccccc1NC(=O)c1ccc(NC(=O)C2CC(=O)OC23CCCCC3)cc1 (configuration not stated),"inconclusive: 7.08 µM [inhibitor, partial curve]"
4,CC(=O)N(CCC(Cc1ccccc1)c1ccco1)Cc1ccco1 (configuration not stated),inactive
5,CCOC(=O)C1=C(N)n2c(s/c(=C/c3ccco3)c2=O)=C(C(=O)OC)C1c1ccco1 (configuration not stated),"inconclusive: 35.5 µM [inhibitor, single point]"
6,Cc1cc(-c2nc3ccccc3o2)c2ccccc2n1,"inconclusive: 31.6 µM [inhibitor, partial curve]"
7,Cc1noc(NS(=O)(=O)c2ccc(NC(=O)c3ccc(Br)o3)cc2)c1C,"inconclusive: 39.8 µM [inhibitor, single point]"
8,CCOC(=O)CN(C(=O)COc1nc(-c2ccccc2)cc(C)c1C#N)c1ccc(F)cc1,"inconclusive: 8.91 µM [inhibitor, single point]"
9,O=c1c(-c2c(O)cc(O)c3c(=O)cc(-c4ccc(O)cc4)oc23)c(-c2ccc(O)cc2)oc2cc(O)cc(O)c12,"inconclusive: 35.5 µM [inhibitor, single point]"
10,Cc1cc(/C=C2\SC(=O)N(CC(=O)Nc3ccccc3F)C2=O)c(C)n1C,inactive
11,CCSc1nnc(-c2ccccc2SC)o1,"inconclusive: 22.4 µM [inhibitor, single point]"
12,CCNC(=O)c1c(C)nc2ccccn12,"inconclusive: 28.2 µM [inhibitor, single point]"
13,COc1ccc(NC(=O)CN(C)C(C)C(=O)N2CCCCC2)cc1 (configuration not stated),"inconclusive: 31.6 µM [inhibitor, single point]"
14,CCn1c(C)cc(C=C2C(=O)c3ccccc3C2=O)c1C,"inconclusive: 39.8 µM [inhibitor, single point]"
15,CSc1nc2nc(-c3ccc(F)cc3)c(CCN3CCN(C)CC3)cn2n1,"inconclusive: 31.6 µM [inhibitor, partial curve]"
16,CC(C)(C)c1nc2ccccc2[nH]1,inactive
17,CCOC(=O)NC(NC(=S)Nc1ccccc1OC)C(Cl)(Cl)Cl (configuration not stated),"inconclusive: 39.8 µM [inhibitor, single point]"
18,COc1ccc(-c2nncnn2)cc1,"inconclusive: 39.8 µM [inhibitor, single point]"
19,Cc1cccc(-n2c(-c3ccco3)nc3nc4ccccc4nc32)c1,"inconclusive: 3.16 µM [inhibitor, partial curve]"
20,Fc1ccc(CSc2nnc3ccccn23)c(Cl)c1,"inconclusive: 25.1 µM [inhibitor, partial curve]"
21,Clc1ccccc1-c1nnc(-c2cccs2)o1,"inconclusive: 31.6 µM [inhibitor, partial curve]"
22,CCOC(=O)c1nc(-c2ccc3c(c2)OCO3)[nH]c1C,"inconclusive: 28.2 µM [inhibitor, single point]"
23,COc1ccc(-c2nnc(SCC(=O)Nc3cccc(Cl)c3)o2)cc1,"inconclusive: 39.8 µM [inhibitor, single point]"

row,Compound,Potency
1,COc1cc(S(C)=O)ccc1-c1nc2ncccc2[nH]1 (configuration not stated),"inconclusive: 20 µM [inhibitor, single point] and inconclusive: 28.2 µM [inhibitor, partial curve]"
2,Cc1nc(-c2ccccc2)cn(O)c1=O,"inconclusive: 22.4 µM [inhibitor, partial curve]"
3,COc1cccc(OC)c1C(=O)Nc1nnc(-c2cccs2)s1,"inconclusive: 28.2 µM [inhibitor, partial curve]"
4,CC1(C)CNC(=O)c2sc(NC(=O)c3ccccc3)nc2C1,"inconclusive: 35.5 µM [inhibitor, single point]"
5,CC(=O)N1CCN(c2ccc(NC(=O)c3ccc(N4CCCC4)c([N+](=O)[O-])c3)cc2Cl)CC1,inactive
6,COc1ccc2[nH]c(O)c(N=NC(=O)Cc3cccs3)c2c1,inactive
7,O=C1CCNc2ccc(-c3ccccc3)cc21,"inconclusive: 31.6 µM [inhibitor, partial curve]"
8,C#CCOCCOCCOCCNc1nc(N2CCN(C(=O)C(Cc3ccc(O)cc3)n3cc(C(N)CC(C)C)nn3)CC2)nc(N2CCN(C(=O)C(Cc3cc4ccccc4[nH]3)n3cc(C(N)C(C)CC)nn3)CC2)n1 (configuration not stated),"inconclusive: 39.8 µM [inhibitor, single point]"
9,Cc1c(C(=O)Nc2cccc(Cl)c2)oc2ccc(S(=O)(=O)N3CCC4(CC3)OCCO4)cc12,"inconclusive: 3.98 µM [inhibitor, single point]"
10,O=C(CN1CCN(c2ccccn2)CC1)Nc1ccccc1,inactive
11,CCCCNCc1cccn1-c1ccccc1,"inconclusive: 22.4 µM [inhibitor, single point]"
12,O=C(c1ccccc1)c1ccc2nc[nH]c2c1,"inconclusive: 39.8 µM [inhibitor, single point]"
13,CCOC(=O)CCc1c(C)nc(SCCCn2c(=O)[nH]c3ccccc32)c(C#N)c1C,inactive
14,O=C(CC1C(=O)NCCN1Cc1cccc(Oc2ccccc2)c1)NCc1cccnc1 (configuration not stated),"inconclusive: 39.8 µM [inhibitor, single point]"
15,CCOC(=O)c1c(C)oc2c1c(C(c1cccnc1)N1CCCCC1)c(O)c1ccccc12 (configuration not stated),"inconclusive: 10 µM [inhibitor, partial curve]"
16,COc1ccc(/C=C/C(=O)NCC2COc3ccccc3O2)c(OC)c1 (configuration not stated),"inconclusive: 31.6 µM [inhibitor, partial curve]"
17,O=C1C2C(C(=O)N1CCN1CCN(Cc3ccc([N+](=O)[O-])cc3)CC1)[C@H]1C=C[C@@H]2C1 (some centres not stated),inactive
18,CC1=C/C(=C/N(C)c2ccccc2)C(=O)S1,inactive
19,COc1ccc2[nH]c3c(N4CC(C)OC(C)C4)ncnc3c2c1 (configuration not stated),"inconclusive: 28.2 µM [inhibitor, partial curve]"
20,Nc1c(C(=O)CCC(=O)O)oc2ccc(Cl)cc12,"inconclusive: 28.2 µM [inhibitor, partial curve]"
21,Cc1ccc(NC(=O)COC(=O)c2ccc3c(c2)NC(=O)C2CCCN32)cc1 (configuration not stated),"inconclusive: 25.1 µM [inhibitor, partial curve]"
22,COc1ccccc1[C@@H]1C(c2cccc(Cl)c2)=NN(c2ccccc2)[C@H]1C(=O)N1CCOC1=O,"inconclusive: 31.6 µM [inhibitor, partial curve]"
23,CCOCCCn1c(=NC(=O)c2cccs2)c(C#N)cc2c(=O)n3ccccc3nc21,"inconclusive: 35.5 µM [inhibitor, partial curve]"

row,Compound,Potency
1,C/C(=C\COc1cc(=O)[nH]c2ccccc12)CCC(O)C(C)(C)O (configuration not stated),"inconclusive: 20 µM [inhibitor, partial curve]"
2,COc1cc(OC)cc(-c2nc3cc(C)ccc3o2)c1,inactive
3,CCOCCCNCC(=O)NC1(C)C2CCC(C2)C1(C)C (configuration not stated),"inconclusive: 22.4 µM [inhibitor, single point]"
4,CCOC(=O)C1=C(C)NC(C)=C(C(=O)OCC)C1/C=C/c1ccccc1,"inconclusive: 31.6 µM [inhibitor, partial curve]"
5,CC(C)C1N=C(c2ccc3c(c2)OCO3)CC(c2ccccc2O)N1 (configuration not stated),"inconclusive: 35.5 µM [inhibitor, single point]"
6,COCc1c(C#N)c(NCc2cc(OC)c(OC)c(OC)c2)nc(C)c1[N+](=O)[O-],inactive
7,COC(=O)c1cc(NC(=O)/C=C/c2ccc3c(c2)OCO3)cc(C(=O)OC)c1,"inconclusive: 28.2 µM [inhibitor, partial curve]"
8,COc1ccccc1-c1nc(-c2ccc(C)nc2OC)no1,"inconclusive: 25.1 µM [inhibitor, partial curve]"
9,CC(C)C(=O)NC(=S)Nc1nnn(C)n1,"inconclusive: 39.8 µM [inhibitor, single point]"
10,O=C(Cc1cccc2ccccc12)Nc1ccc(OC(F)F)c(Cl)c1,"inconclusive: 39.8 µM [inhibitor, single point]"
11,Cc1ccc(C)c(-c2csc(N/N=C/c3ccco3)n2)c1,"inconclusive: 22.4 µM [inhibitor, single point]"
12,CCCOC(=O)Cc1c(O)c2ccccc2[nH]c1=O,"inconclusive: 28.2 µM [inhibitor, partial curve]"
13,Cn1c(=O)oc2cc(S(=O)(=O)N3CCCC3)ccc21,inactive
14,CC(C)(C)C1=C(C#N)C(c2cccnc2)C(C#N)=C(N)O1 (configuration not stated),"inconclusive: 35.5 µM [inhibitor, single point]"
15,Cn1c(N)c(C(=O)Nc2c(Cl)cccc2Cl)sc1=S,inactive
16,CCOc1ccccc1C(=O)N/N=C/c1cccc2cccnc12,inactive
17,Cc1ccn2cc(CCNC(=O)COc3ccccc3)nc2c1,"inconclusive: 28.2 µM [inhibitor, partial curve]"
18,C=CCNc1nc(N)c(C(=C(C#N)C#N)c2ccc(Br)cc2)s1,"inconclusive: 17.8 µM [inhibitor, partial curve]"
19,COCCCn1c(SCC(=O)Nc2ccc(NC(=O)c3ccco3)c(OC)c2)nc2ccccc2c1=O,"inconclusive: 35.5 µM [inhibitor, single point]"
20,COC(=O)C1(C(=O)OC)Sc2ccccc2C1=O,"inconclusive: 28.2 µM [inhibitor, single point]"
21,CCOC(=O)c1ccc(N2CCOCC2)c(NC(=O)COCC(=O)O)c1,"inconclusive: 22.4 µM [inhibitor, partial curve, poor fit]"

# From PubChem BioAssay AID2147 (National Center for Advancing Translational Sciences (NCATS), 2009)
